Reference: PubChem BioAssay AID360 (National Center for Advancing Translational Sciences (NCATS), 2006)
Among all 48,000 compounds or so, about 550 (1.1%) were called active. About 4% were inconclusive and are not listed. Cut-off read from the data, not from the text of the source: active = potency below about 15 µM; inconclusive = mostly about 16 µM to 33 µM; inactive = weaker than that. This is one part of the list.

Each molecule was assayed against Lysosomal acid glucosylceramidase (Homo sapiens) (UniProt P04062) (assay: Glucocerebrosidase). Conditions: purified enzyme, resorufin glucoside fluorescence (screen aimed at inhibitors), 20 min.
Sequence of UniProt P04062 (P04062 whole entry, looked up): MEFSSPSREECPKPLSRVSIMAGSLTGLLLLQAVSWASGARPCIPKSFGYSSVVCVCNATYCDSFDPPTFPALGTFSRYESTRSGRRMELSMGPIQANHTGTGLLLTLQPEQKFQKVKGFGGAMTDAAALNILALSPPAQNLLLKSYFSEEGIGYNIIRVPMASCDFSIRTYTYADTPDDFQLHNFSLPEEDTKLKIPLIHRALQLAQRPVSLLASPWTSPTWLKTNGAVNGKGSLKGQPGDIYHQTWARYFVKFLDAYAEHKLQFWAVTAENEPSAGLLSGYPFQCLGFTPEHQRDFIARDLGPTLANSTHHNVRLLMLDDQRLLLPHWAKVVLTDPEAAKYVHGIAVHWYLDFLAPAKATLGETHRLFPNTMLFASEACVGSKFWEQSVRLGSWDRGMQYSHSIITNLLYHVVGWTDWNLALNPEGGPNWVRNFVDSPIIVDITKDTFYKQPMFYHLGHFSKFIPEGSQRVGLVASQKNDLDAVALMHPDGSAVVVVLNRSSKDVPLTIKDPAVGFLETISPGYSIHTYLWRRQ
Procedure, shortened: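 Wild-type enzyme at 0.2 nM final in 50mM citric acid/KH2PO4, 10mM sodium taurocholate, 0.01% tween-20, pH 5.9, with resorufin beta-D-glucopyranoside at 30 uM final. Compounds titrated, 20 min at RT, red fluorescence read; AC50 from titration.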
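Note: the screen sought inhibitors.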
Potency is the fitted concentration of half-maximal effect.

Potency, active:
CC1CCCC(NC(=O)C2CCN(S(=O)(=O)N3CCC4(CC3)OCCO4)CC2)C1C (stereo unspecified) 14 µM

Potency, inactive:
CCOC(=O)C1CCCN(C(=O)C2CCN(S(=O)(=O)CC)CC2)C1 (stereo unspecified) > 76.9 µM
Oc1ccc(C=Nc2cccc3ncccc23)c(O)c1 > 76.9 µM
O=C(NCCc1ccncc1)Nc1ccccc1 > 76.9 µM
Cc1ccc(NC(=O)CC2SC3=NCCN3C2=O)cc1 (stereo unspecified) > 76.9 µM
O=C(CN(c1ccc(F)cc1)S(=O)(=O)c1ccc2c(c1)OCCO2)NCC1CCCO1 (stereo unspecified) > 76.9 µM
CCCc1cc(=O)oc2cc(C)cc(OCC(=O)O)c12 > 76.9 µM
CC1CCc2c(nc3ncnn3c2N2CCN(c3ccccc3F)CC2)C1 (stereo unspecified) > 76.9 µM
CCC(C)(C)n1nnnc1C(c1cccc(C#N)c1)N1CCN(c2cc(C)ccc2C)CC1 (stereo unspecified) > 76.9 µM
COc1nc2ccc(C)cc2cc1-c1noc(-c2cccnc2)n1 > 76.9 µM
ON1C2CCCCC2N(O)C1c1c(F)c(F)c(F)c(F)c1F (stereo unspecified) > 76.9 µM
NCCCCCc1nnc(SCC(=O)Nc2cccc(Cl)c2)o1 > 76.9 µM
Cc1cccc(NC(=O)CSc2nnc(Cn3nnc(-c4ccccc4)n3)n2-c2ccccc2)c1 > 76.9 µM
Cn1c(=O)c(-c2ccccc2)nn2c3ccccc3nc12 > 76.9 µM
CCCCC(C(=O)O)C(C)CC(=O)Nc1ccn(-c2ccccc2)n1 (stereo unspecified) > 76.9 µM
O=c1cc2n(c(=O)[nH]1)CCC1=C2CCCC1 > 76.9 µM
O=C(c1ccccc1)c1cccn1CC(=O)N1CCN(c2ccc(F)cc2)CC1 > 76.9 µM
COc1ccc(-c2nnc3n2N=C(c2cccc(Br)c2)CS3)cc1OC > 76.9 µM
O=C(CCNS(=O)(=O)c1cccc2nsnc12)N1CCN(c2ccccn2)CC1 > 76.9 µM
CCc1ccc(N2CC(C(=O)NC3=NCCS3)CC2=O)cc1 (stereo unspecified) > 76.9 µM
CCOC(=O)Cn1nnc(-c2ccc(OCC(C)C)cc2)n1 > 76.9 µM
CCOc1ccc(C(=O)N(CN2CCCC2=O)c2ccc(C)cc2)cc1 > 76.9 µM
Cn1c(=O)c2c(O)cc(=O)[nH]c2n(-c2ccccc2)c1=O > 76.9 µM
COc1cccc(NC(=O)C2C3CC4OC(=O)C2C4C3)c1 (stereo unspecified) > 76.9 µM
O=C(Nc1nnc(Cc2ccccc2)s1)c1cccs1 > 76.9 µM
Cc1cc(C)n(C(=O)CNC(=O)Cc2ccccc2)n1 > 76.9 µM
O=C1CN(CC(=O)N2CCCCC2)c2ccccc2O1 > 76.9 µM
COc1ccc(S(=O)(=O)NCC(c2cccnc2)N2CCN(c3ccccc3OC)CC2)cc1C (stereo unspecified) > 76.9 µM
CCO/C=C/C(O)(CNC(=O)COc1ccccc1F)C(F)(F)F (stereo unspecified) > 76.9 µM
Cc1[nH]c(=O)[nH]c(=O)c1NC(=O)CSc1ncccc1-c1nc2ccccc2[nH]1 > 76.9 µM
COc1cccc(C(=O)Nc2c(C)n[nH]c2C)c1 > 76.9 µM
N#Cc1ccccc1OCC(=O)Nc1c(C(=O)C2CC2)oc2ccccc12 > 76.9 µM
COc1cccc(CNC(=O)C2CCN(c3cnccn3)CC2)c1 > 76.9 µM
O=C(CSc1nc2c(c(=O)n1-c1ccc(Cl)cc1)SCC2)NCc1ccco1 > 76.9 µM
Cc1ccccc1-c1nnn(CC(=O)NCc2ccc3c(c2)OCO3)n1 > 76.9 µM
Cc1cc(C)n(-c2nc3ccccc3nc2N2CCCCCC2)n1 > 76.9 µM
O=c1cc(N2CCC3(CC2)OCCO3)[nH]c(=O)n1-c1ccc(Cl)cc1 > 76.9 µM
COc1ccc(OC)c(NC(=O)CSc2ccccc2)c1 > 76.9 µM
COCCN(Cc1cc2cccc(C)c2n2nnnc12)C(=O)C(F)(F)F > 76.9 µM
COC(=O)N1CCN(c2ccc(C(C)=O)cc2)CC1 > 76.9 µM
Cc1ccc(C)c2[nH]c(=O)c(CN(Cc3ccco3)C(=O)Nc3ccccc3)cc12 > 76.9 µM
COc1ccc(NC(=O)C2CCCCN2S(=O)(=O)c2ccc(F)cc2)c(OC)c1 (stereo unspecified) > 76.9 µM
COc1cccc(-c2nnn(CC(=O)NC3CCCC3)n2)c1OC > 76.9 µM
COc1ccc(OC)c(S(=O)(=O)N2CCC(C(=O)NCC3CCCO3)CC2)c1 (stereo unspecified) > 76.9 µM
COc1ccc(-c2nnc(SCC(=O)N3CCc4ccccc4C3)o2)cc1 > 76.9 µM
CCOc1ccc2nc(NS(=O)(=O)c3ccc4c(c3)n(C)c(=O)n4C)sc2c1 > 76.9 µM
O=C(CCc1ccc(S(=O)(=O)N2CCOCC2)cc1)Oc1ccccc1 > 76.9 µM
O=C(Oc1cccnc1)c1ccc(Cl)c(Cl)c1 > 76.9 µM
O=C(NCc1cccnc1)c1noc2c1CCCC2 > 76.9 µM
O=C(CSc1nnc(-c2ccc(F)cc2)o1)Nc1ccc(S(=O)(=O)N2CCCC2)cc1 > 76.9 µM
O=C(NCC(=O)N(c1ccc2c(c1)OCCO2)C(C(=O)NC1CCCC1)c1ccco1)c1ccco1 (stereo unspecified) > 76.9 µM
COc1ccc(NC(=O)CCc2nc(-c3ccccc3F)no2)cc1 > 76.9 µM
CCCc1c(C)c2ccccc2[nH]c1=O > 76.9 µM
O=C(c1ccccc1-c1nc(-c2ccccc2)no1)N1CCCC1 > 76.9 µM
COC(=O)Cc1c(C)nc2nc(NCc3ccc(Cl)cc3)[nH]n2c1=O > 76.9 µM
C=CCc1ccccc1OCC(CN1CCCCC1)OC(C)=O (stereo unspecified) > 76.9 µM
CCNc1cc2n(c(=O)n1)CCc1cc(OC)c(OC)cc1-2 > 76.9 µM
COc1ccc(S(=O)(=O)N(Cc2ccccc2)Cc2nc(-c3ccccc3)no2)cc1 > 76.9 µM
CCc1nnc(NC(=O)CSc2nnc(CNc3ccc(F)cc3)n2C2CCCCC2)s1 > 76.9 µM
COc1ccc(-c2ccc(-c3nnn(CC(=O)N4CCOCC4)n3)cc2)cc1 > 76.9 µM
CCn1c(C)cc(=S)c2ccccc21 > 76.9 µM
Cc1cc(C)n(C(=O)CSc2nnc(SCC(=O)n3nc(C)cc3C)s2)n1 > 76.9 µM
O=C(CSc1nnc(-c2cccs2)n1Cc1ccco1)Nc1ccc2c(c1)OCO2 > 76.9 µM
O=C(Oc1ccccc1)c1cccc(COC(=O)c2cnccn2)c1 > 76.9 µM
O=C(NC(Cc1ccccc1)C(=O)NCc1ccccn1)c1ccco1 (stereo unspecified) > 76.9 µM
CCOC(=O)CCC(=O)OCC(=O)NC(C)C1CC2CCC1C2 (stereo unspecified) > 76.9 µM
CC(=O)c1sc(-c2c(C)nc3sccn23)nc1C1CCCC1 > 76.9 µM
CC(C)N(C(=O)Cn1c(SCC(=O)N2CCN(c3ccccc3)CC2)nc2ccccc21)C(C)C > 76.9 µM
CCOC(=O)c1ccccc1NC(=O)CN1C(=O)CCS(=O)(=O)c2ccccc21 > 76.9 µM
O=C1NCCN1C(=O)c1cccc(Cl)c1 > 76.9 µM
CCOC(=O)c1cccc(NC(=O)Cn2c(CC(=O)N3CCCC3)nc3ccccc32)c1 > 76.9 µM
COCCCNC(=O)c1c(N)n(-c2cccc(S(N)(=O)=O)c2)c2nc3ccccc3nc12 > 76.9 µM
O=C(Cn1cnc2c(cnn2-c2ccccc2Cl)c1=O)N1CCc2ccccc21 > 76.9 µM
CN(Cc1cccc(F)c1)C(=O)c1ccc(S(=O)(=O)C(F)F)cc1 > 76.9 µM
Cn1nnnc1SCC(=O)c1c(N)n(C)c(=O)n(C)c1=O > 76.9 µM
O=C(CCSc1ccccc1)NCCN1CCOCC1 > 76.9 µM
CC(=O)N1CCN(Cc2cc(=O)n3cc(Cl)c(C)c(Cl)c3n2)CC1 > 76.9 µM
O=C(CC1(C(F)(F)F)OCCO1)Nc1ccc2c(c1)OCO2 > 76.9 µM
CCc1ccccc1NC(=O)c1nnn(CC(=O)Nc2cccc(C)c2)c1N > 76.9 µM
C=CCc1c(C)nc(SC)nc1Nc1ccc(C(=O)O)cc1 > 76.9 µM
COc1ccc(N/C=C2/CCCCC2=O)cc1 > 76.9 µM
CCN(CC)C(=O)Cn1nc(-c2ccccc2O)nc1SCC(=O)Nc1ccc(OC)cc1 > 76.9 µM
COc1ccc(C2=NCC(CSc3nnc(-c4ccc5c(c4)OCO5)o3)S2)cc1 (stereo unspecified) > 76.9 µM
CCOc1ncccc1C(=O)OCC(=O)NCCc1ccc(OC)cc1 > 76.9 µM
Nc1cc(N)nc(SCCN2CCCCC2)n1 > 76.9 µM
O=C(Nc1cccc(O)c1)c1ccc(Br)cc1 > 76.9 µM
Cn1c(=O)n(CC(=O)Nc2ccc(F)cc2)c2ccccc21 > 76.9 µM
Cc1cc(O)c2c(-c3ccccc3)cc(=O)oc2c1 > 76.9 µM
COC(=O)c1cccc(C(=O)Oc2cccc(Br)c2)n1 > 76.9 µM
Cc1nc2cc(Cl)c(Cl)cc2nc1C > 76.9 µM
CC(Sc1nc(N2CCOCC2)c2c(c1C#N)CC(C)(C)OC2)C(=O)Nc1ccccc1 (stereo unspecified) > 76.9 µM
